# Data: the supplement of paper PMC12217912
# The other results are listed elsewhere or left out. Sequences were assembled here from the parent chain. Inactive controls read about 0.05.
# B1: TEV protease; numbered along this chain (parent)
# chain: MGESLFKGPRDYNPISSSICHLTNESDGHTTSLYGIGFGPFIITNKHLFRRNNGTLVVQSLHGVFKVKDTTTLQQHLVDGRDMIIIRMPKDFPPFPQKLKFREPQREERICLVTTNFQTKSMSSMVSDTSCTFPSGDGIFWKHWIQTKDGQCGSPLVSTRDGFIVGIHSASNFTNTNNYFTSVPKNFMELLTNQEAQQWVSGWRLNADSVLWGGHKVFMVKPEEPFQPVKEATQL
# Variants of: B1
# Test: raw area under fraction-flipped curve 0-4 h after induction (AUC4h, not background-subtracted), DNA-recorder readout of cleavage of the substrate (dimensionless); higher = more cleavage of the substrate by the protease variant
# Conditions: temperature: 34 °C; time window: 0-4 h after rhamnose induction
# Protocol: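 In vivo DNA recorder in E. coli TOP10(DE3) ΔrhaA at 34 °C. Each TEVp single-site mutant (parent TEVp 0) is paired with a single-site variant of the 7-mer TEVs (canonical ENLYFQ|S). The substrate sits between flexible linkers in a Bxb1-sfGFP-TEVs-SsrA fusion, so cleavage stabilises Bxb1 and speeds flipping of a recombination array, read by NGS. The value is the raw area under the fraction-flipped curve over 0-4 h after rhamnose induction (AUC4h), with ≥20 reads per time point. It is not background-subtracted; inactive controls average about 0.047.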
# 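Also: Bxb1 expression induced with 0.2% (w/v) L-rhamnose at OD600 near 0.5, cultures sampled hourly, flipped fraction per protease–substrate barcode pair counted by paired-end Illumina sequencing.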
Variant,area with substrate ENLYFAS,area with substrate ENLYFCS,area with substrate ENLYFFS,area with substrate ENLYFIS,area with substrate ENLYFKS,area with substrate ENLYFRS,area with substrate ENLYFSS,area with substrate ENLYFYS,area with substrate ENLYFHS,area with substrate ENLYFLS,area with substrate ENLYFNS,area with substrate ENLYFPS,area with substrate ENLYFVS,area with substrate ENLYFWS,area with substrate ENLYFDS,area with substrate ENLYFES,area with substrate ENLYFGS,area with substrate ENLYFTS,area with substrate ENLYFMS
F140D,0.0616,0.0641,0.0764,0.064,0.0681,0.0657,0.0655,0.0584,,,,,,,,,,,
T71Y,0.0629,,,0.0499,0.0574,,0.0452,0.0674,0.0595,0.0546,0.0633,0.0285,0.048,0.0625,,,,,
K46D,0.0637,0.0537,0.0613,0.0479,0.0564,0.0589,0.0524,,,,0.0677,0.0444,,0.0503,0.0641,0.0707,0.0512,0.0592,
T55K,0.0588,0.0591,0.0784,0.0622,,0.0502,,0.0627,0.0486,,0.076,0.0638,0.0526,0.0527,0.0576,0.069,0.0677,0.0716,0.063
T30A,0.0542,0.0595,0.0772,0.0586,0.0583,0.0503,0.0665,,0.0452,0.0641,0.0623,0.0532,,0.0511,0.0591,0.0562,,0.0549,0.0663
E189W,0.0361,0.054,0.0601,0.0527,0.0608,,,0.0236,,,0.0593,0.0555,,,0.0626,0.05,,0.0565,0.0772
E189R,0.0622,0.0608,0.0631,0.0497,0.0548,,,,,,0.0592,0.0562,0.0619,0.0374,0.056,0.0616,,,0.0663
E189S,0.0614,,,,,,,0.0584,0.0681,,0.0796,0.048,,,,,,,
I42E,0.041,0.0538,0.0387,0.0372,0.0605,0.0329,0.0387,,0.0546,0.0538,0.0427,0.0476,,0.0505,0.0391,0.0453,,0.0481,0.0396
I42P,0.0579,0.0277,0.048,0.0261,0.0467,0.0489,0.0425,0.0561,0.0502,0.041,0.0409,0.0435,,,0.0432,0.0564,,0.0457,0.0215
C111F,0.0869,0.0626,0.0917,0.0392,0.0634,,0.07,,0.065,0.0558,0.0731,0.0795,0.0633,0.0553,0.0402,0.0179,0.0307,0.0495,0.0706
T129S,0.0602,,0.0749,0.0643,0.0588,0.0446,,0.0568,0.0616,0.0573,0.0631,0.0591,,0.0516,0.0502,0.0654,0.0576,0.0616,0.0801
E107C,0.0753,0.0445,,0.0685,,,,0.0698,,,,0.0595,,0.0523,,0.0724,0.0714,,
G80Y,0.0659,0.0492,0.0635,0.0497,,0.0594,0.0477,0.0336,0.0642,0.0507,0.064,0.0645,,,0.0583,0.0703,,0.0642,
K66T,0.059,0.0631,0.0751,0.0563,0.0683,0.093,0.0607,0.0364,,0.0628,,0.0571,,0.0488,0.0519,0.0601,,0.0558,0.0679
K68M,0.06,,0.0637,0.0551,0.0782,0.0386,,0.064,0.0744,0.0511,0.0642,0.0561,,0.0546,,0.0616,,,0.0634
K68N,0.0626,0.0691,0.0635,0.066,,0.0593,0.0559,0.0583,0.0691,0.0465,,0.068,0.0353,0.0533,,0.0773,0.0745,0.0676,0.0639
E108H,0.0568,0.0404,0.0636,0.0504,0.0449,0.0536,0.0659,0.0428,0.0552,0.0484,0.0495,0.0604,,,0.0563,0.0521,0.0532,0.0504,0.0496
N186S,0.0584,0.0616,0.0748,0.0608,0.0691,0.0517,,0.0526,0.0616,,0.0692,0.0549,,,,0.0742,0.0635,,0.0405
D82I,0.0365,0.0614,0.0594,0.076,0.0486,,0.0449,,0.0525,0.0325,,0.0265,0.0474,,,0.0354,,0.0495,0.0479
D82E,0.0378,0.076,0.0479,0.0562,,,0.0673,,0.0676,0.066,0.0815,0.0534,,0.0391,0.0658,0.0645,0.0571,0.0561,0.0657
L235N,0.0418,0.0754,0.0708,,0.0603,0.0645,,,,,0.0514,0.0575,,0.0658,,0.0441,0.0557,,0.0598
D69M,0.0666,0.0725,0.0969,0.0752,0.069,,,,,,,0.0641,,0.0667,,0.0564,0.0601,0.0633,0.0505
S182T,0.049,0.055,,0.063,0.0604,0.0525,,,,,,0.0694,,0.0554,,,,,0.0722
C20K,0.0489,0.0482,0.0542,0.0437,0.0504,0.0398,0.0455,,0.0456,0.0611,0.047,0.0398,0.0588,0.0541,,0.0436,0.0487,0.0526,0.0524
R106L,0.0579,0.0708,0.0664,0.0608,0.103,,0.0622,,,,0.0724,0.0684,0.0527,,,0.086,,,0.101
K148Y,0.0575,,0.0699,,,0.0459,0.0554,,,0.0391,0.0623,0.0803,0.0708,,0.0246,0.0933,,,
